# Out of some 46,000 compounds screened, about 60 (0.1%) were called active. This list was built around the results that the source calls inconclusive (neither active nor inactive); the mix of calls is not that of the screen. The call rests on the fitted dose curve; in most records, active means well fitted inhibition curve with a large enough effect; inconclusive means small, poorly fitted or top-dose-only effect; inactive means no such curve, though single readings can be large or run the other way. No potency is given beside an inconclusive call; the fits are too rough.
# Test: Primary qHTS assay for Inhibitors of ovarian cancer metastasis using an organotypic tumor microenvironment (TME) model. Further: nearly all actives have a fitted effect of over 65% in size.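 On activity change, negative = inhibition: plate controls were DMSO wells for no effect and tomatine positive control wells for full effect.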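 On potency: count of GFP cancer cells still attached after washing and fixation.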
# Details: SKOV3ip1-GFP adhesion/invasion on 3D omental model, fluorescence; activity change, negative = inhibition: at 45.8 µM (top of the series); series mostly up to 45.8 µM
# In short: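 qHTS, 4-pt dose (0.36-46 umol/L); SKOV3ip1-GFP, 1,200 cells/well, no FBS; primary omental fibroblast/mesothelial co-culture 48 h pre-grown; 2 h RT + 16 h 37 C; PBS wash, 4% PFA; GFP count 488/509 nm.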
# Potency means the concentration at half of the fitted maximal effect; tags describe the fitted curve by direction and shape.
SMILES,"activity change, negative = inhibition",Potency,outcome
CCC(=O)N1CCc2cc(S(=O)(=O)CCC(=O)N3CCN(c4ccc(Cl)cc4)CC3)ccc21,inactive: 1.53%,,
CC(C)(C)OC(=O)N1CCC(c2c(C(=O)NC3CCN(Cc4ccccc4)CC3)cnn2-c2ccc(F)cc2F)CC1,,"inconclusive [inhibitor, single point]",
CC(C)(O)Cn1c(NC(=O)c2ccc(-c3cn[nH]c3)s2)nc2cc(CN3CCOCC3)ccc21,,"inconclusive [inhibitor, full curve, poor fit]",
Cc1cc(SCc2sc(-c3ccc(C(F)(F)F)cc3)nc2C)ccc1OCC(=O)O,inactive: 21.4%,,
COc1ccc(OCC(=O)Nc2cc(-c3ccccc3F)nn2-c2ccccc2)cc1,inactive: -11%,,
Cc1ccc(Cl)cc1NC(=O)Nc1nnc(N(C)Cc2ccccc2)s1,,"inconclusive [inhibitor, single point]",
Cc1nnc(N2CCC(C(=O)N3CCCCC3)CC2)c2nn(-c3ccc(Cl)cc3)c(C)c12,inactive: 2.11%,,
CC(C)(C)c1ccc(C(=O)Nc2ccc3c(c2)CCCN3C(=O)c2cccs2)cc1,,"inconclusive [inhibitor, full curve]",
O=C(CCC1N=C2c3ccccc3N=C(SCc3ccc(Cl)cc3)N2C1=O)NCCc1ccccc1 (centres undefined),,"inconclusive [inhibitor, single point]",
COc1ccc(OC)c(NC(=O)c2cc3cc(C)ccc3n2C)c1,,"inconclusive [inhibitor, partial curve, poor fit]",
COc1cccc(NC(=O)Cn2nnc(-c3nc(-c4ccccc4)no3)c2N)c1,,"inconclusive [inhibitor, single point]",
CCn1c(C)c(C)c2cc(C(=O)NCCCN3CCCCC3)ccc21,,"inconclusive [inhibitor, single point]",
COc1ccc(C)cc1NC(=O)Cn1c(=O)cc(C)c2c(C)nn(C)c21,inactive: 1.12%,,
CCN(CC)CCCNC(=O)CSc1c2c(nc3cc(Cl)ccc13)CCCC2,,"inconclusive [inhibitor, partial curve, poor fit]",
COc1cccc(NC(=O)Cn2c(=O)n(-c3ccc(Cl)cc3)c(=O)c3oc4ccccc4c32)c1,,"inconclusive [inhibitor, partial curve, poor fit]",
Cn1ccc2cc3c(cc21)CCN3C(=O)Nc1cccnc1,inactive: 14.8%,,
Cc1ccc(C)c(CNC(=O)c2ccc3c(c2)nc2n3CCCCC2)c1,,"inconclusive [inhibitor, single point]",
Cc1ccc(C)c(CN2CCC(CNC(=O)Nc3ccc(Br)cc3F)CC2)c1,,"inconclusive [inhibitor, single point]",
Cn1nnnc1SCCCNCc1cc(Cl)ccc1OCc1ccc(F)cc1,,"inconclusive [inhibitor, single point]",
CCOC(=O)c1ccc(N2C(=O)c3n[nH]c(-c4ccco4)c3C2c2ccc(C)cc2)cc1 (centres undefined),,"inconclusive [inhibitor, single point]",

SMILES,"activity change, negative = inhibition",Potency,outcome
CCc1ccc(S(=O)(=O)N(C(=O)c2ccncc2)c2ccc3oc(C)c(C(=O)OC)c3c2)cc1,inactive: -4.05%,,
Cc1cccc(NC(=O)CSc2ccc(-c3ccccn3)nn2)c1,,"inconclusive [inhibitor, single point]",
CCOc1ccc(CCNC(=O)CN2CCN(Cc3ccc(Cl)cc3)C2=O)cc1OCC,inactive: 65.3%,,
Cc1ccc(C)c(CN2C(=O)c3ccccc3S(=O)(=O)c3ccc(C(=O)NCCCN4CCCC(C)C4)cc32)c1 (centres undefined),,"inconclusive [inhibitor, single point]",
CCOC(=O)c1ccc(N2C(=O)c3n[nH]c(-c4ccco4)c3C2c2ccc(OCC)cc2)cc1 (centres undefined),,"inconclusive [inhibitor, single point]",
Cc1cc(C)cc(OCCSc2nc(-c3ccc(C(C)(C)C)cc3)nc3cc(=O)[nH]n23)c1,,"inconclusive [inhibitor, single point]",
Cc1ccccc1NC(=O)N1CCC(CN2CCCC2)CC1,,"inconclusive [inhibitor, single point]",
COc1cccc(Cn2cnc3c2c(=O)n(C)c(=O)n3C)c1,,,inactive
COc1ccccc1CNC(=O)c1cc2cc(S(=O)(=O)N3CCCCC3)ccc2n1C,,"inconclusive [inhibitor, full curve, poor fit]",
CCc1ccc(OCC(=O)Nc2ccc3oc(-c4ccc(OC)cc4)nc3c2)cc1,inactive: -1.7%,,
CCOc1ccc(S(=O)(=O)NCC(c2cccs2)S(=O)(=O)c2ccc(C)cc2)cc1 (centres undefined),,"inconclusive [inhibitor, full curve, poor fit]",
Cc1ccc(C)c(N(C)S(=O)(=O)c2ccc3[nH]cc(C(=O)NC4CCCC4)c(=O)c3c2)c1,,"inconclusive [inhibitor, single point]",
CCC(C(=O)NCCc1cc(OC)ccc1OC)n1nc(C)c2sc3ccccc3c2c1=O (centres undefined),,"inconclusive [inhibitor, partial curve, poor fit]",
CCOC(=O)c1cc(S(=O)(=O)N(C)c2ccccc2)[nH]n1,,"inconclusive [inhibitor, single point]",
CCOc1cc(C(=O)Nc2ccc3nc(N4CCN(C)CC4)cc(C)c3c2)cc(OCC)c1OCC,,"inconclusive [inhibitor, single point]",
COc1ccc2nc(NC(=O)c3nc(S(=O)(=O)Cc4ccc(C)cc4)ncc3Cl)sc2c1,,"inconclusive [inhibitor, full curve, poor fit]",
COc1cc(-c2nc(-c3ccccc3)c(-c3ccc(Br)cc3)[nH]2)cc(OC)c1O,,"inconclusive [inhibitor, partial curve, poor fit]",
COc1cc2nc(-c3cc(F)ccc3O)nc(N[C@@H]3CNC[C@@H]3C(C)(C)O)c2cc1OC,,"inconclusive [inhibitor, single point]",
O=C(NCc1ccccc1F)c1cc2ccccn2n1,,"inconclusive [inhibitor, full curve, poor fit]",

# — PubChem BioAssay AID1963576 (National Center for Advancing Translational Sciences (NCATS), 2024)
